From PubChem BioAssay (NCI)
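48-hour exposure; five concentrations; linearly interpolated endpoints. Abbreviation: GI50, concentration required for 50% inhibition of growth. Definition used: TGI = concentration required for complete inhibition of growth.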 Numbered stars: 1 amine (or outer) side, 2 acyl side, 3 side chain; on linkers, the order of the positions; unused ones are H or OH. Square brackets hold non-standard residues; d marks the D form. Peptide text beside a SMILES is read from it. * marks the point of attachment. X9 = C/C=C/CC(C)C(O)[C@H](N[*:1])C(=O)[*:2]; Decanoyl = CCCCCCCCCC(=O)*; Leu(ol) = CC(C)C[C@H](N)CO; Iva = CC[C@](C)(N)C(=O)O; Aib = CC(C)(N)C(=O)O

system: NCI-H322M lung; assay: DTP human tumour cell line panel, 48 h

SMILES | GI50 [nM] | TGI [µM]
Clc1cccc(/C=N/Nc2nc(N/N=C/c3cccc(Cl)c3)nc(N3CCOCC3)n2)c1 | 11300 | > 100
Cc1cc(C)cc(NC2=C(Cl)C(=O)c3nc(C)ccc3C2=O)c1 | 13100 | 27.7
COc1ccc([C@H]2[C@H](O)C(=O)N2c2cc(OC)c(OC)c(OC)c2)cc1O | 37.2 | > 100
CN1CCN(Cc2ccc(NC(=O)c3cncc(C#Cc4cnc5ccc(N6CCSCC6)nn45)c3)cc2C(F)(F)F)CC1 | 241 | 0.748
O=C(N/N=C/c1ccc[nH]1)c1[nH]c2ccc(Br)cc2c1-c1ccccc1 | 921 | 13.3
C/C=C/CC(C)C(O)[C@H](NC(=O)[C@@H]1CCCN1C(=O)C(C)(C)NC(=O)CCCCCCCCC)C(=O)N[C@@](C)(CC)C(=O)N[C@@H](CCC(N)=O)C(=O)N[C@H](CCC(N)=O)C(=O)NC(C)(C)C(=O)NC(C)(C)C(=O)N[C@@H](CCC(N)=O)C(=O)N[C@H](CC(C)C)C(=O)N[C@H](CO)CC(C)C (stereo partly drawn) (Decanoyl-[Aib]P[X9][Iva]Q[dQ][Aib][Aib]Q[dL][Leu(ol)]) | 1970 | 4.64
